The values that follow come from the supplement of paper PMC12645437, “Orthogonal IMiD-Degron Pairs Induce Selective Protein Degradation in Cells” (ACS Chemical Biology, 2025).

This is one part of the list.
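Note: jurkat cells carrying a lentiviral library of mutant zinc finger degrons fused to EGFP plus mCherry, mCherry+ cells FACS sorted, degron abundance counted by next-generation sequencing.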

This test addresses no compound (DMSO). Briefly: log2 fold change of degron read counts, EGFP-low vs EGFP+ sorted cells; higher = lower degron-EGFP level without compound (poor expression or instability). The settings on record: compound: DMSO control; 18 h.
As for FTCNQCGAGFTQKGNLLRHIKL, the “log2 fold change of degron read counts” value is -0.763.
With FSCEQCGARFTQKGNLLRHIKL the figure was -2.05; with FMCEVCGAMFTQKGNLLRHIKL, -1.14; with FWCEQCGAIFTQKGNLLRHIKL, 0.478.
With LHCNQCGFECTQKGNLLRHIKL the figure was -0.602.
The value for FLCPVCGAMFTQKGNLLRHIKL was -0.0801; that for FFCEICGRFFTQKGNLLRHIKL was 0.404; that for LACPICGFTCTQKGNLLRHIKL was 0.736.
Consider FICPICGAPFTQKGNLLRHIKL, for which the “log2 fold change of degron read counts” value was found to be 0.489.
In the case of FFCNQCGRRFTQKGNLLRHIKL, the “log2 fold change of degron read counts” value came out at 0.541.
FECEICGASFTQKGNLLRHIKL: the “log2 fold change of degron read counts” value was -1.25.
With FNCEQCGAMFTQKGNLLRHIKL the figure was -1.4.
Take FYCNQCGRSFTQKGNLLRHIKL: the “log2 fold change of degron read counts” value was 1.06.
Take FLCSVCGHKFTQKGNLLRHIKL: the “log2 fold change of degron read counts” value is -0.569.
